Laboratory results reported in PMC7819943, “Rice protein-binding microarrays: a tool to detect cis-acting elements near promoter regions in rice”.
The list shows a part of the results.

Each sequence was assayed against T1, OsWOX13 (Oryza sativa, UniProt Q5QMM3 1-267) (assay: protein-binding microarray (RPBM); PBS, 2% BSA, 51.3 ng/ul salmon testes DNA, 50 uM zinc acetate, 200 nM TF, 25 C, 1 h; high values mean tight binding). Details: protein: recombinant; tags: N-terminal polyhistidine and DsRed monomer fusion (pET32a); label: CyDye5-dUTP incorporated in the synthesized complementary strand; 3' TTTTT single-stranded linker to array surface; dsDNA, one strand shown.
T1 sequence: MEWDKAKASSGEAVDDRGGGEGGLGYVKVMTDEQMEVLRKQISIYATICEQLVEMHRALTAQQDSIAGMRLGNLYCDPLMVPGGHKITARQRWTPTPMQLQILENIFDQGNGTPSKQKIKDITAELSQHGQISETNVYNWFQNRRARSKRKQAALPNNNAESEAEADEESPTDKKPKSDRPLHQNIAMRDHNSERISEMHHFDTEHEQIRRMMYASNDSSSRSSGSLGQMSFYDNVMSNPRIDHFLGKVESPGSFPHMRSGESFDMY
How it was run: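 Transcription factors were made in E. coli BL21-CodonPlus as N-terminal fusions to a polyhistidine tag and DsRed, then purified on Ni–NTA. After primer extension with Cy5-dUTP and blocking with 2% BSA, a custom Agilent array was exposed for 1 h at 25 °C to 200 nM protein in PBS, 2% BSA, salmon testes DNA and 50 µM zinc acetate. Washed arrays were scanned on an Axon 4000B, and the binding signal is per-feature fluorescence intensity in arbitrary units.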
With “CTAATGGATTGAGGCTGGAGACATGCTCTCTTTTGTCACACGGAGTCACCTAGTGCAG” the binding signal was 14500 fluorescence intensity (a.u.). With “TCTACAATAATATATGCATGATTTATATACCACTGCTGTTCGGAGTCACCTAGTGCAG” the binding signal was 7600 fluorescence intensity (a.u.). With “CAGAAAATTTTGGTTTAACAGCACAAATTAGTATAGTTATCGGAGTCACCTAGTGCAG” the binding signal was 19100 fluorescence intensity (a.u.). In the case of “CAATAAATATAATTTATTTCAATTCATAACATCCATGACGCGGAGTCACCTAGTGCAG”, the binding signal is reported as 20800 fluorescence intensity (a.u.). For “GTGGTTAACTAATTGTAAATTGTGATGAGATTTCTCATCACGGAGTCACCTAGTGCAG”, the binding signal was 22700 fluorescence intensity (a.u.). With “GTATTTAATTAATTTGCTTATACTTCAATGTCACACATAACGGAGTCACCTAGTGCAG” the binding signal was 38600 fluorescence intensity (a.u.). With “AGTTAATTAGCACCCCTGTGGCTACCATCGATCTGTCTAACGGAGTCACCTAGTGCAG” the binding signal was 26400 fluorescence intensity (a.u.). In the case of “ATATACTATTTAAATTTAAATTATCATAAACCATATCAACCGGAGTCACCTAGTGCAG”, the binding signal is reported as 16100 fluorescence intensity (a.u.). In the case of “CTTAATTTTAGTCTCTGTATTTAGACACTAATTTGGAGTACGGAGTCACCTAGTGCAG”, the binding signal is reported as 38200 fluorescence intensity (a.u.). With “ACAAATGCACGGTCATTAAGTTAATTAGCCAGTATCATTACGGAGTCACCTAGTGCAG” the binding signal was 8230 fluorescence intensity (a.u.). With “AGGAATAAGTTGTGATTGGCAGGGTTTACATTACTTTTCGCGGAGTCACCTAGTGCAG” the binding signal was 28400 fluorescence intensity (a.u.). For “AACACATCAATCAAATCCTTTGTTAGATTTGATGCGAGCGCGGAGTCACCTAGTGCAG”, the binding signal was 27200 fluorescence intensity (a.u.). With “GCGGCAGCGCTAGGGTGATTGACTACGCCCTCCTCCTTGACGGAGTCACCTAGTGCAG” the binding signal was 7690 fluorescence intensity (a.u.). In the case of “GGTAATCAATAAAGGAATCGATTGAAATCTGTGTGGTTGACGGAGTCACCTAGTGCAG”, the binding signal is reported as 18600 fluorescence intensity (a.u.). With “TCACTGATTACAGGCACTCCTCTCCGATCCAACATAATTACGGAGTCACCTAGTGCAG” the binding signal was 4520 fluorescence intensity (a.u.). With “TATATATATATATATATATATATATAGTAGCAGTAGCAGTCGGAGTCACCTAGTGCAG” the binding signal was 15300 fluorescence intensity (a.u.). “ACCAATAACTGTTATAGATACTGGAGTAGTATATTCTGATCGGAGTCACCTAGTGCAG” was tested, and the binding signal was 4770 fluorescence intensity (a.u.). In the case of “CACACGCTAATTTGCCTATTTAACTGAAACCATTCTTCTCCGGAGTCACCTAGTGCAG”, the binding signal is reported as 28700 fluorescence intensity (a.u.). “AATAATTGCTCTTGTGCTAAGAAAATTCCAACTTATACTCCGGAGTCACCTAGTGCAG” was tested, and the binding signal was 20400 fluorescence intensity (a.u.). “GAAATAAATCACTGGATCAAGACACAATTCTTCATGGTCTCGGAGTCACCTAGTGCAG” was tested, and the binding signal was 5100 fluorescence intensity (a.u.). For “CATGTAATTGGAACACCCAGTGGCCCGGGATGGAACGGAGCGGAGTCACCTAGTGCAG”, the binding signal was 23500 fluorescence intensity (a.u.). In the case of “TATATATATATATATATATATATATAATTCTAATGTCATACGGAGTCACCTAGTGCAG”, the binding signal is reported as 25300 fluorescence intensity (a.u.). “CAAAACGAAATTGATAGATCTTAATGAGTTGTACAACTTTCGGAGTCACCTAGTGCAG” was tested, and the binding signal was 20400 fluorescence intensity (a.u.). “TCTTGATAGAAAGAACTTTCTTTGGTTAGGACACTGCGTTCGGAGTCACCTAGTGCAG” was tested, and the binding signal was 27500 fluorescence intensity (a.u.). For “GGCTATCAACTAATTAAACCTTCCCTCCGGCGTCAACATCCGGAGTCACCTAGTGCAG”, the binding signal was 4740 fluorescence intensity (a.u.). “CAAAAGCGTGACTCGTAGATTGACGCTATTACAGTTTAAGCGGAGTCACCTAGTGCAG” was tested, and the binding signal was 7830 fluorescence intensity (a.u.). In the case of “GATGATTGCCTGTGTGCCCTTGGTACTTGTGTGGAAGGTGCGGAGTCACCTAGTGCAG”, the binding signal is reported as 34200 fluorescence intensity (a.u.). For “TGTAGATTGCTCGTAGGCCATAGTGACGCCAACCCTCGCCCGGAGTCACCTAGTGCAG”, the binding signal was 7800 fluorescence intensity (a.u.). “CGAAATTATAATGATTAAACAAAATTGATCGATATAACTACGGAGTCACCTAGTGCAG” was tested, and the binding signal was 41000 fluorescence intensity (a.u.). “ACTAATTTCATAACTTGCCTGGAAACCACAAGACGAATCTCGGAGTCACCTAGTGCAG” was tested, and the binding signal was 9770 fluorescence intensity (a.u.). With “GGTATAGATTAACTACAGCCTTATTATTTTCATTTTGTAACGGAGTCACCTAGTGCAG” the binding signal was 3530 fluorescence intensity (a.u.). For “ACTGAATTGATACAATGTGATGTGTAAGAACCAAGGTTGTCGGAGTCACCTAGTGCAG”, the binding signal was 19600 fluorescence intensity (a.u.). With “CTAAAATTACATATGTAATTTAGGCACTTACATATGTAATCGGAGTCACCTAGTGCAG” the binding signal was 19500 fluorescence intensity (a.u.). “CAAATACACGTAAACAAATTGACATGAGTCGACGCCTCCGCGGAGTCACCTAGTGCAG” was tested, and the binding signal was 16300 fluorescence intensity (a.u.). For “TGTGAAATAGTGATTTGCAGTTTTACTGTAGTAAACAGTGCGGAGTCACCTAGTGCAG”, the binding signal was 8590 fluorescence intensity (a.u.). For “TATATTTATCAAATTAGTTTTATTAAATTAATAATTAAATCGGAGTCACCTAGTGCAG”, the binding signal was 3330 fluorescence intensity (a.u.). With “AAAATTAAATTCTCATCTTAATCTCATCATCAATTCTCTTCGGAGTCACCTAGTGCAG” the binding signal was 4810 fluorescence intensity (a.u.). “CAATTGATGTATCGAATCTTAATTAAGCCATGTATGGACACGGAGTCACCTAGTGCAG” was tested, and the binding signal was 8830 fluorescence intensity (a.u.). For “ACATCACTTACCAATAATCACTGACCATGCACATTTTCGACGGAGTCACCTAGTGCAG”, the binding signal was 3470 fluorescence intensity (a.u.). For “TTTGACGAGATAGAATATACTTTCTGAAGATGCCGAGGCTCGGAGTCACCTAGTGCAG”, the binding signal was 9390 fluorescence intensity (a.u.). “ATTATCGCATGATTGATTAAGCATTAGCTATTACAAACTTCGGAGTCACCTAGTGCAG” was tested, and the binding signal was 37100 fluorescence intensity (a.u.). With “CCAAATTATACGTGCGGCCTATTTATGCGTATGGGCCTTTCGGAGTCACCTAGTGCAG” the binding signal was 8940 fluorescence intensity (a.u.).
